# PubChem BioAssay AID1768 (National Center for Advancing Translational Sciences (NCATS), 2009)
# In all, about 270,000 compounds went through this assay and about 620 (0.23%) were called active. This list was built around the results that the source calls inconclusive (neither active nor inactive); the mix of calls is not that of the screen. Calls come from the whole dose curve; as a rule, active = well fitted inhibition curve with a large enough effect in the polarisation, with a control signal flat (not every such curve was filed as active); inconclusive = small, poorly fitted or top-dose-only effect, or effect the other way, or a change in a side signal; inactive = no such curve, though single readings can be large or run the other way; the % refers to the polarisation. Potencies of inconclusive entries are doubtful fits and often do not repeat. A note “side channel” means that the fit belongs to a control or component signal, not to the main read-out.
# Biological target: Menin (Homo sapiens) (UniProt O00255)
# Assay: qHTS Assay for Inhibitors Targeting the Menin-MLL Interaction in MLL Related Leukemias: Competition With Texas Red Labeled MLL-derived Mutant Peptide
# Settings: fluorescence polarization; series mostly up to 61.6 µM
# Potency is the fitted concentration of half-maximal effect; tags give direction and shape of the fitted curve or compound fluorescence and quenching.
# Chain of UniProt O00255 (O00255 whole entry, looked up): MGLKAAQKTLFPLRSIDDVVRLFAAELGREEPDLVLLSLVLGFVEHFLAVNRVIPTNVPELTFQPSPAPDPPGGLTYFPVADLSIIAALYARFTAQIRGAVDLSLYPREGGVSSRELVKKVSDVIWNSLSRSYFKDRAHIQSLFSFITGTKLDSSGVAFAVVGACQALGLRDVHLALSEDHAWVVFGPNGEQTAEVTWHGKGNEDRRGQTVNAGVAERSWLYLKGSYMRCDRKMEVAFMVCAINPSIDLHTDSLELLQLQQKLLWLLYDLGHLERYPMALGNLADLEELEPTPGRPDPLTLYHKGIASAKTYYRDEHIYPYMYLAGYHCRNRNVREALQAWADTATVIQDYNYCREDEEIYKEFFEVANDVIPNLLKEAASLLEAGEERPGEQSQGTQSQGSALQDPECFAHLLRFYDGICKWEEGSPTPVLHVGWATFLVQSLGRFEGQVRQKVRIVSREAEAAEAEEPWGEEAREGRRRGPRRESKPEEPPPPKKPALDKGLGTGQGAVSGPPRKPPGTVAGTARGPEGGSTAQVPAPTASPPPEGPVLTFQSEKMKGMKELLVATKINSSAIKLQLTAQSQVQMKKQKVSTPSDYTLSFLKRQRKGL
row,SMILES,Potency
1,COc1cccc(OC)c1-c1nnc(-c2cn(C)c3ccccc23)o1,"inconclusive: 15.8 µM [inhibitor, single point]"
2,CCCCn1c(N)c(-c2nc3ccccc3s2)c2c([N+](=O)[O-])nn(CC)c(=O)c21,"inconclusive: 7.08 µM [quencher, side channel, partial curve]"
3,COc1ccc(C/C(C)=N/NC(=S)Nc2ccccc2F)cc1,"inconclusive: 39.8 µM [quencher, side channel, single point]"
4,N#CC(C(=O)Nc1cccc(Cl)c1)=C1Nc2ccccc2N1,"inconclusive: 15.8 µM [quencher, side channel, partial curve]"
5,COCCn1c(SCc2ccccc2)nc2c1c(=O)[nH]c(=O)n2C,"inconclusive: 11.2 µM [inhibitor, partial curve]"
6,O=C(CNC(=O)c1cccc(F)c1)N/N=C/c1cccs1,"inconclusive: 11.2 µM [quencher, side channel, partial curve]"
7,CCOc1cccc(/C=N/N2C(=O)CSC2=S)c1O,"inconclusive: 39.8 µM [fluorescent, side channel, single point]"
8,O=C(NC(=S)NCc1ccccc1)c1cccc([N+](=O)[O-])c1,"inconclusive: 22.4 µM [quencher, side channel, single point]"
9,O=C(O)c1ccccc1OC(=O)C12CC3CC(CC(C3)C1)C2,inactive
10,CCOC(=O)c1ccc(N/N=C/c2cc(Br)cc([N+](=O)[O-])c2O)cc1,"inconclusive: 2.24 µM [quencher, side channel, full curve]"
11,Oc1c(C(c2ccccn2)N2CCC(Cc3ccccc3)CC2)cc(Cl)c2cccnc12 (stereo not given),inactive
12,CC(C)NC(=O)C1CCN(C2CCN(Cc3cn[nH]c3-c3ccccc3)CC2)CC1,"inconclusive: 3.16 µM [inhibitor, full curve, poor fit]"
13,Cc1[nH]n(S(=O)(=O)c2ccccc2)c(=O)c1N=Nc1cccc(Cl)c1,"inconclusive: 28.2 µM [quencher, side channel, partial curve]"
14,COc1ccc(OCCCNCCc2ccccc2)cc1,"inconclusive: 20 µM [fluorescent, side channel, partial curve, poor fit]"
15,O=C(C1=C[C@H](C2CCCCC2)C[C@H](OCc2ccc(CO)cc2)O1)N1CCN(Cc2ccccc2)CC1,"inconclusive: 2.24 µM [fluorescent, side channel, full curve]"
16,O=C(NNC(=O)c1cc2cc(Br)ccc2oc1=O)c1ccc(O)cc1O,"inconclusive: 28.2 µM [quencher, side channel, partial curve]"
17,Cc1c(Br)c([N+](=O)[O-])nn1CC(=O)Nc1ccc(Cc2ccncc2)cc1,"inconclusive: 17.8 µM [quencher, side channel, partial curve]"
18,CCCCOc1ccc(C2(C(=O)O)CCCC2)cc1,"inconclusive: 8.91 µM [inhibitor, single point]"
19,O=S(=O)(N/N=C/c1cccc(OC2CSC2)c1)c1ccccc1,"inconclusive: 31.6 µM [inhibitor, single point]"
20,COc1ccccc1CNC(=O)c1c(-c2ccccc2)nn(-c2ccccc2)c1C,"inconclusive: 35.5 µM [fluorescent, side channel, single point]"

row,SMILES,Potency
1,C=CCOC(=O)N[C@@H](Cc1ccccc1)/C(C(=O)OC)=C(\C)NCc1ccccc1,inactive
2,CC(C)[C@H]1c2ccc(F)cc2CC[C@@]1(CCN(C)CCCc1nc2ccccc2[nH]1)OC(=O)C1CC1,"inconclusive: 10 µM [inhibitor, partial curve]"
3,CCc1ccc(/C=C/C(=O)C2C(=O)c3ccccc3C2=O)cc1,"inconclusive: 7.08 µM [quencher, side channel, full curve]"
4,COc1ccc(Br)cc1/C=C/C(=O)Nc1ccc(C)cc1,"inconclusive: 39.8 µM [inhibitor, single point]"
5,Cc1ccc2[nH]cc(S(=O)(=O)c3ccc(F)cc3)c(=O)c2c1,"inconclusive: 39.8 µM [inhibitor, single point]"
6,CC(=O)Nc1cccc(N(C)S(C)(=O)=O)c1,inactive
7,CCCN1C=CC(=C/C=C(\C#N)C(=O)OCC)C=C1,inactive
8,O=C(Nc1cccnc1)c1ccc(COc2cc(Cl)ccc2Cl)o1,inactive
9,CNC(=O)C1(C)C=CCN1C(=O)c1ccccc1 (stereo not given),"inconclusive: 11.2 µM [quencher, side channel, partial curve, poor fit]"
10,O=C(COc1cccc2cccnc12)N/N=C1\SCC(=O)N1Cc1ccccc1,"inconclusive: 20 µM [fluorescent, side channel, single point]"
11,O=c1c2c(-c3ccccc3)csc2ncn1/N=C/c1cccc([N+](=O)[O-])c1O,"inconclusive: 25.1 µM [quencher, side channel, single point]"
12,O=C(CCCc1c[nH]c2ccccc12)N1CCN(S(=O)(=O)c2cccs2)CC1,inactive
13,O=C(N/N=C/c1ccc(OC(=O)c2ccccc2Cl)cc1)c1ccccn1,"inconclusive: 22.4 µM [fluorescent, side channel, single point]"
14,Cc1nc2ccc(C(=O)N/N=C/c3ccccc3O)cc2[nH]1,"inconclusive: 12.6 µM [quencher, side channel, partial curve]"
15,C=C[C@@H](C1=CC(=O)C(OC)=C(OC)C1=O)c1ccccc1,inactive
16,COc1ccc(-c2ccc(-c3noc(-c4ccccc4)n3)c(OC)n2)cc1,inactive
17,Nc1ncnc(N(c2ccccc2)C2CCCCC2)c1[N+](=O)[O-],"inconclusive: 5.62 µM [fluorescent, side channel, single point]"
18,Cc1cc(C)cc(N2CC(O)=C(c3nc4ccccc4c(=O)[nH]3)C2=N)c1,inactive
19,Cc1ccc(C)n1NC(=O)c1cccs1,"inconclusive: 28.2 µM [quencher, side channel, single point]"
20,Cc1cccc2cc3c(N)c(C(=O)Nc4ccc(N5CCOCC5)cc4)sc3nc12,"inconclusive: 7.94 µM [quencher, side channel, partial curve]"
